Laboratory results: paper PMC4336329 (PLoS ONE, 2015)
Hit rate of the full screen: of about 310,000 compounds, about 2,200 (0.71%) showed an effect of 50% or more. The effect is printed as a negative number. The list shows a part of the results.

Biological target: human ether-à-go-go-related gene (hERG) potassium channel (human, UniProt Q12809)
Test: primary screen, population patch clamp on CHO cells stably expressing hERG

Chain of human ether-à-go-go-related gene (hERG) potassium channel (Q12809 whole entry, looked up): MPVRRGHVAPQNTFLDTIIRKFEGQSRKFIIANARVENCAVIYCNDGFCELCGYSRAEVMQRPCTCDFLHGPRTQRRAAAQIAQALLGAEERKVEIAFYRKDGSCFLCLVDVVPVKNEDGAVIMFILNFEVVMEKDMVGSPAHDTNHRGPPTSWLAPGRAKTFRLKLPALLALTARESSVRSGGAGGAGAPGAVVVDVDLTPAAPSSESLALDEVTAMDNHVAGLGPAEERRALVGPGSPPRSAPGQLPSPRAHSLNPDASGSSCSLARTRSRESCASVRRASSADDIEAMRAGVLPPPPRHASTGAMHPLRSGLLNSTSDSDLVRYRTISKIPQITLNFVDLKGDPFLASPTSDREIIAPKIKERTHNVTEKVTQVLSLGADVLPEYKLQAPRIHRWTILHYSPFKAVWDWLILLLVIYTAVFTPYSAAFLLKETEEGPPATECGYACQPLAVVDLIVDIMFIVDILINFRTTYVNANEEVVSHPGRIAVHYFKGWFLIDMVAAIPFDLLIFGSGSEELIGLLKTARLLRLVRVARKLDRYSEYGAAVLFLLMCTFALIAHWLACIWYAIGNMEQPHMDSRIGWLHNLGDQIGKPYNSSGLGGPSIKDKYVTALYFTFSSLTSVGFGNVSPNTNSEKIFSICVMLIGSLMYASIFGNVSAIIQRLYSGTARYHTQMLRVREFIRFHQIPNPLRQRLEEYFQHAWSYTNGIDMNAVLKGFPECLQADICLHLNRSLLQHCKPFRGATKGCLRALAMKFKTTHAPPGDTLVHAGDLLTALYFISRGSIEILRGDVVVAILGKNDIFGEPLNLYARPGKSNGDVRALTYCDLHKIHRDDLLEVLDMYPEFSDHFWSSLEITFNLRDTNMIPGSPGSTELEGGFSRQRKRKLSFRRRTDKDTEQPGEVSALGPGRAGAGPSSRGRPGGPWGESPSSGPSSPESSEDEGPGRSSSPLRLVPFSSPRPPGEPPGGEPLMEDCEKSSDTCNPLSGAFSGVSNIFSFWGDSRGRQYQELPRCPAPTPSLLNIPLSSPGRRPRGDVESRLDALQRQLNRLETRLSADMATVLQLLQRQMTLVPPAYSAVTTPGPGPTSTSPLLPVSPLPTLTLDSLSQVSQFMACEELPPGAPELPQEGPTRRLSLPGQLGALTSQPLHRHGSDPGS

In order of rising “hERG current change (%, negative = inhibition) at 1uM” value:
1. COc1ccc(CCC(=O)N2CCN(c3ccc([N+](=O)[O-])cc3)CC2)cc1OC  -76.1%
2. O=C(N/C(=C\c1ccccc1Cl)C(=O)N1CCOCC1)c1ccc([N+](=O)[O-])cc1  -31.6%
3. CCOC(=O)c1c(NC(=O)CCS(=O)(=O)c2ccccc2)sc2c1CC(C)(C)NC2(C)C  -14.1%
4. CC1(c2nnc(-c3ccc(Cl)cc3)o2)CC(c2cccnc2)=NO1 (centres unmarked)  -5.85%
5. CC(C)CN(C(=O)C1CSC2(C)CCC(=O)N12)c1c(N)n(Cc2ccccc2)c(=O)[nH]c1=O (centres unmarked)  -3.96%
6. Cc1ccc(C)c(CN2CCNC2=O)c1  -3.95%
7. Cn1c(O)c(/C=N/c2ncccn2)c(=O)n(C)c1=O  -3.57%
8. CCN1CCN(C(=O)c2ccc(C)c(S(=O)(=O)Nc3cccc(C)c3)c2)CC1  -1.83%
9. Cc1cc(C)nc(SCC(=O)N2CCCCC2)n1  -0.525%
10. CC1=C(C(=O)O)N2C(=O)C(NC(=O)c3ccc(F)cc3)C2SC1 (centres unmarked)  0.0849%
11. O=C1C2C(C(=O)N1/N=C/c1ccc(N3CCCCC3)o1)C1C=CC2C12CC2 (centres unmarked)  1.2%
12. Cc1nc(-n2ncc(C#N)c2N)c2c3c(sc2n1)CCC3  1.47%
13. O=c1cc(-c2ccccc2)[nH][nH]1  2.02%
14. CCOc1ccc(C(=O)NCC(=O)OCc2c(F)cccc2Cl)cc1OCC  2.51%
15. COc1ccc(C)cc1NC(=O)CN(C)C1CCCCC1  2.87%
16. Cc1ccc(S(=O)(=O)N(C)CC(=O)Nc2cccc3c2CCCC3)cc1  3.05%
17. Cc1nc(-c2ccc(C(=O)Nc3cccc(Br)c3)cc2)cs1  3.25%
18. CCOP(=O)(c1ccc(N(C)C)cc1)C(O)c1ccc(Cl)cc1 (centres unmarked)  3.39%
19. O=C(NNc1cccc(Cl)n1)Nc1cccc(Cl)c1  3.48%
20. Cc1nc2ccc(S(=O)(=O)NCC(=O)N3CCCC(C)C3)cc2s1 (centres unmarked)  3.54%
21. COc1ccc(-c2cc(C(=O)Nc3c(Cl)cc(Cl)cc3Cl)c3ccccc3n2)cc1OC  4.23%
22. C/C(=N\N(C)C)c1ccc(OCCOc2ccc([N+](=O)[O-])cc2)cc1  5.48%
23. CC(C)CCNC(=O)CN(C(=O)CCC(=O)Nc1nccs1)c1ccc2c(c1)OCCO2  5.52%
24. CCOC(=O)c1c(C)[nH]c(C)c1C(=O)COC(=O)c1ccc(Cl)c(S(N)(=O)=O)c1  5.74%
25. CCCCn1c(N)c(N(CCOC)C(=O)COC(=O)CSc2cc(C)c3ccccc3n2)c(=O)[nH]c1=O  5.83%
26. CC(C)n1c(C(=O)OCC(=O)NCc2ccc3c(c2)OCO3)cc2occc21  6.07%
27. CCOc1ccccc1OCCCC(=O)N(C)CC(=O)Nc1cc(C)ccc1C  6.85%
28. O=CN1CCN(C(=O)Cc2ccc([N+](=O)[O-])cc2)CC1  7.36%
29. CCOc1cc(CNCc2cccnc2)ccc1OCC(=O)NC(C)(C)C.Cl  7.42%
30. COc1cccc(OCCOc2cccc(/C=N/n3cnnc3)c2)c1  8.1%
31. COCCN1CCN(C(=O)C2CCC(=O)N(CCCc3ccccc3)C2)CC1 (centres unmarked)  8.26%
32. CO[C@H]1/C=C/O[C@@]2(C)Oc3c(C)c(O)c4c(O)c(c(C=NN5CCN(C)CC5)c(O)c4c3C2=O)NC(=O)/C(C)=C\C=C\[C@H](C)[C@H](O)[C@@H](C)[C@@H](O)[C@@H](C)[C@H](OC(C)=O)[C@@H]1C  9.29%
33. COc1ccc(N2CCN(C(=S)NCc3ccc(C)cc3)CC2)cc1  10.1%
34. COc1ccc(C(CC(=O)NCc2ccccc2)Sc2n[nH]c(-c3ccccc3)n2)cc1 (centres unmarked)  10.2%
35. CC(=O)Oc1ccc2c(=O)c(-c3nc4ccccc4s3)coc2c1  10.9%
36. Cc1cccn2c(/C=N/OCc3cccc(F)c3)c(-c3ccc(Cl)cc3)nc12  11.1%
37. Cn1c(CCNC(=O)c2ccccc2F)nnc1SCc1nc2ccccc2c(=O)[nH]1  11.4%
38. O=C(Cn1c(-c2ccccc2)noc1=O)NCc1ccccc1  11.7%
39. Cn1c(Cn2c(=O)sc3ccccc32)nnc1SCC(=O)NCc1ccc(F)cc1  12.5%
40. COc1ccc(/C=N/NC(=O)c2cccc(NC(=O)c3ccccc3Cl)c2)c(OC)c1  12.5%
41. O=C(NNC(=O)c1cc([N+](=O)[O-])ccc1Cl)c1cccs1  13%
42. CSc1nnc2c3cc(F)ccc3n(C)c2n1  13.7%
43. COc1ccc(-c2cc(C(=O)N3CCN(c4ncccn4)CC3)c3ccccc3n2)c(OC)c1  13.8%
44. O=C(CCC(=O)Nc1nnc(C2CCCCC2)s1)NCc1ccc(F)cc1  13.9%
45. NC(=O)C1CCN(C(=S)NC2CC3C=CC2C3)CC1 (centres unmarked)  14.2%
46. COc1ccc(OC)c(S(=O)(=O)N2CCC(C(=O)NCc3ccccn3)CC2)c1  15.1%
47. COc1cc(/C=C2\N=C(c3ccccc3)OC2=O)ccc1OC(C)=O  16.1%
48. CNC(=O)Nc1cccc(-c2cc(-c3c(Cl)cccc3Cl)no2)c1  16.3%
49. COc1ccccc1CNS(=O)(=O)c1csc(C(N)=O)c1  17%
50. C[C@@H]1NS(=O)(=O)[C@H]2C[C@@H]3C=C[C@]2(O3)[C@H]1OC(=O)Nc1ccc(C(F)(F)F)cc1[N+](=O)[O-]  17.1%
51. COc1ccc(-c2c(C#N)c(SCC(=O)Nc3ccccc3)nc3c2CCCC3)cc1  17.6%
52. CCNC(C(=O)c1c[nH]c2c(CC)cccc12)c1ccccc1 (centres unmarked)  20.3%
53. CCc1ccc(NC(=O)CN(CC(=O)Nc2ccc(CC)cc2)CC(C)O)cc1 (centres unmarked)  22.6%
